The list shows a part of the results. Sequences were assembled here from the parent chain. Inactive controls read about 0.05.
B1: TEV protease; numbered along this chain (parent)
chain: MGESLFKGPRDYNPISSSICHLTNESDGHTTSLYGIGFGPFIITNKHLFRRNNGTLVVQSLHGVFKVKDTTTLQQHLVDGRDMIIIRMPKDFPPFPQKLKFREPQREERICLVTTNFQTKSMSSMVSDTSCTFPSGDGIFWKHWIQTKDGQCGSPLVSTRDGFIVGIHSASNFTNTNNYFTSVPKNFMELLTNQEAQQWVSGWRLNADSVLWGGHKVFMVKPEEPFQPVKEATQL

Variants of: B1
Assay: raw area under fraction-flipped curve 0-4 h after induction (AUC4h, not background-subtracted), DNA-recorder readout of cleavage of the substrate (dimensionless); higher = more cleavage of the substrate by the protease variant
Details: temperature: 34 °C; time window: 0-4 h after rhamnose induction
Protocol: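 In vivo DNA recorder in E. coli TOP10(DE3) ΔrhaA at 34 °C. Each TEVp single-site mutant (parent TEVp 0) is paired with a single-site variant of the 7-mer TEVs (canonical ENLYFQ|S). The substrate sits between flexible linkers in a Bxb1-sfGFP-TEVs-SsrA fusion, so cleavage stabilises Bxb1 and speeds flipping of a recombination array, read by NGS. The value is the raw area under the fraction-flipped curve over 0-4 h after rhamnose induction (AUC4h), with ≥20 reads per time point. It is not background-subtracted; inactive controls average about 0.047.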
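Note: Bxb1 expression induced with 0.2% (w/v) L-rhamnose at OD600 near 0.5, cultures sampled hourly, flipped fraction per protease–substrate barcode pair counted by paired-end Illumina sequencing.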

Row | Variant | area with substrate FNLYFQS | area with substrate GNLYFQS | area with substrate HNLYFQS | area with substrate INLYFQS | area with substrate LNLYFQS | area with substrate MNLYFQS | area with substrate NNLYFQS | area with substrate PNLYFQS | area with substrate RNLYFQS | area with substrate SNLYFQS
1 | E25S | 0.0735 | 0.0788 | 0.065 | 0.064 | 0.0652 | 0.0606 | 0.0584 | 0.0678 | 0.0546 | 0.0426
2 | V67G | 0.042 | – | 0.0428 | 0.0378 | 0.0591 | 0.0605 | – | 0.0462 | – | 0.0505
3 | V210P | 0.0563 | – | 0.0465 | 0.0468 | – | – | – | 0.0399 | 0.0643 | –
4 | Q227D | 0.0643 | 0.0666 | 0.0649 | 0.0632 | – | – | 0.0658 | – | 0.0609 | 0.0771
5 | S209N | 0.0719 | – | – | – | 0.051 | – | – | – | – | 0.0666
6 | I110F | 0.0479 | 0.0538 | 0.0518 | 0.0634 | 0.0565 | 0.0494 | 0.0587 | 0.0516 | – | –
7 | R81A | 0.0563 | 0.0668 | – | – | 0.0632 | – | 0.0717 | – | – | 0.0868
8 | A170E | 0.0933 | – | – | – | – | – | – | 0.0658 | – | –
9 | V113K | 0.0416 | – | 0.0561 | 0.0546 | 0.0722 | – | 0.0642 | 0.0607 | – | 0.055
10 | S18G | 0.078 | – | 0.0646 | – | – | 0.0676 | 0.0667 | – | 0.0577 | –
11 | G214F | 0.0453 | – | – | – | – | – | – | – | – | –
12 | F6A | 0.0663 | – | – | – | – | – | – | – | – | –
13 | V220S | 0.0637 | 0.0736 | 0.061 | – | 0.0732 | 0.0583 | 0.0658 | 0.0467 | – | 0.0868
14 | Y12R | 0.0727 | 0.0635 | 0.0683 | 0.0874 | 0.0735 | 0.0598 | 0.0462 | 0.0762 | – | 0.0619
15 | D82M | 0.0506 | 0.0654 | 0.0574 | – | – | – | – | 0.0618 | – | 0.0477
16 | L33D | 0.0515 | 0.0455 | 0.0556 | – | 0.0718 | – | 0.0652 | 0.0569 | – | 0.0558
17 | S171Y | 0.0554 | 0.0623 | 0.0603 | – | 0.0676 | 0.0633 | 0.0533 | – | – | –
18 | L61F | 0.0621 | – | – | – | – | – | – | – | – | –
19 | E103P | 0.0518 | – | 0.056 | 0.0522 | – | – | – | – | – | –
20 | E103D | 0.0402 | – | – | – | – | – | – | – | – | –

Same assay, conditions: temperature: 34 °C; time window: 0-4 h after rhamnose induction

Row | Variant | area with substrate TNLYFQS | area with substrate VNLYFQS | area with substrate WNLYFQS | area with substrate YNLYFQS | area with substrate QNLYFQS | area with substrate KNLYFQS
21 | E25S | 0.0687 | 0.0696 | 0.0582 | 0.0635 | – | –
22 | V67G | 0.0858 | 0.053 | 0.0481 | 0.0566 | 0.0404 | –
23 | V210P | 0.0665 | – | 0.0564 | 0.0623 | – | –
24 | Q227D | 0.0607 | – | 0.0514 | – | – | 0.0859
25 | S209N | – | – | 0.0677 | – | 0.0628 | 0.0612
26 | I110F | 0.042 | 0.0655 | 0.0477 | – | – | 0.0765
27 | R81A | – | – | 0.0575 | – | – | –
28 | A170E | 0.0762 | – | 0.0575 | 0.0562 | – | –
29 | V113K | – | – | 0.0525 | – | 0.0545 | –
30 | S18G | – | – | 0.0539 | 0.0731 | – | –
31 | G214F | – | – | – | – | – | 0.0677
32 | F6A | 0.0665 | – | – | – | – | –
33 | V220S | 0.0661 | 0.0688 | 0.0677 | 0.056 | – | –
34 | Y12R | 0.0742 | – | 0.051 | 0.0616 | 0.0698 | 0.0511
35 | D82M | – | 0.0446 | – | 0.0493 | – | –
36 | L33D | 0.0525 | 0.0699 | – | 0.0386 | – | –
37 | S171Y | 0.0578 | – | – | 0.062 | – | –
38 | L61F | – | – | – | 0.0623 | – | –
39 | E103P | 0.0591 | 0.0749 | – | 0.0632 | – | –
40 | E103D | – | – | 0.0607 | 0.0458 | – | –
